Experimental data: PubChem BioAssay AID1159614 (National Center for Advancing Translational Sciences (NCATS), 2016)
Hit rate of the full screen: of about 45,000 compounds, about 65 (0.1%) were called active. The call rests on the fitted dose curve; in most records, active means well fitted activation curve with a large enough effect; inconclusive means small, poorly fitted or top-dose-only effect; inactive means no such curve, though single readings can be large or run the other way. The list shows a part of the results.

biological target: Galactocerebrosidase (Homo sapiens) (UniProt P54803); test: A Novel Cell-Based Assay to Identify Small Molecules for B -Galactocerebrosidase; settings: 145M-Twi-hGALC-G270D cells, HMU-beta-Gal fluorescence, 48 h; series mostly up to 57.5 µM; activation: at the top concentration; further: 0% is about no effect; nearly all actives have a fitted effect of over 65% in size
In short: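 qHTS, 1536-well; 145M-Twi-hGALC-G270D cells (WT line also made) in DMEM/F12 + 10% FBS; compound incubation on live cells; HMU-β-gal 0.1 mM final, pH 5.2, NaTC; carbonate stop; fluorescence increase = enhanced residual activity.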

UniProt P54803, sequence (P54803 whole entry, looked up): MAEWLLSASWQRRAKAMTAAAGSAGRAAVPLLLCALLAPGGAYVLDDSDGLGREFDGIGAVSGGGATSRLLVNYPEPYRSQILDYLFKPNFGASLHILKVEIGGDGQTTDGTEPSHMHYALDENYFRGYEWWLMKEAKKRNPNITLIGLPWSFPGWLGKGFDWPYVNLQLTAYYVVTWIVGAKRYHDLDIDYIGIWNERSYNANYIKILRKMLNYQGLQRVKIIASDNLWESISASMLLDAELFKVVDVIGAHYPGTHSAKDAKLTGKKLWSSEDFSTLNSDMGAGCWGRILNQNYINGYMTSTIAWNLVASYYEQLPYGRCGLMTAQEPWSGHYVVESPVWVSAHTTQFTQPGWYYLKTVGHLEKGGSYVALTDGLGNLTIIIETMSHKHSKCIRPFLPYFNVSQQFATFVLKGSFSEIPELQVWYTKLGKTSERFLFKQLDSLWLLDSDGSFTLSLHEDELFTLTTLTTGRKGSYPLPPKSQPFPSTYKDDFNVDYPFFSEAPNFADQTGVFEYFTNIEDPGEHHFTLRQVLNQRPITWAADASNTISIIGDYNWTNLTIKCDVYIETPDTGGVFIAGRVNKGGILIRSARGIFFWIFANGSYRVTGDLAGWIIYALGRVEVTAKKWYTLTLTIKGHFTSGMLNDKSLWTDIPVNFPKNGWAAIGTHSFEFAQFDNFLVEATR

activation, inactive:
COc1ccc(CCNC(=O)c2ccc3c(Cl)c4c(nc3c2)CCCC4)c(OC)c1 -42.3%
CS(=O)(=O)N1CCCc2cc(C(=O)Nc3cccc(C(F)(F)F)c3)ccc21 -25.3%
Cc1cccc(OCC(=O)N(Cc2ccccc2)c2ccccn2)c1 -13.2%
COc1cc(-c2nc(-c3cccc(Cl)c3)c(-c3ccccc3)[nH]2)cc(OC)c1OC 4.08%
COc1ccc(OCC(=O)Nc2ccccc2C(=O)OCc2cc(=O)n3nc(C)sc3n2)cc1 0.495%
COC(=O)c1ccc(CSc2nc3c(c(=O)[nH]2)CCC3)cc1 -13.4%
O=C(NCCN1CCCCC1)c1ccc(Cn2c(SCc3cccc(F)c3)nc3cccnc32)cc1 -11.3%
CC1CCC(NC(=O)c2ccc(CS(=O)(=O)c3c(Cl)cccc3Cl)o2)CC1 (stereo not given) 4.66%
Cc1ccc(C)c(N2CCN(S(=O)(=O)c3cnc(N)nc3)CC2)c1 -3.58%
Cc1ccc2nc(N3CCN(c4cccc(C)c4C)CC3)c3nncn3c2c1 -7.99%
CCc1ccccc1NC(=O)Cn1c(=O)n(Cc2ccco2)c(=O)c2sc3ccccc3c21 7.11%
Cc1ccc(NC(=O)Cn2c(=O)n(Cc3ccc4c(c3)OCO4)c(=O)c3ccccc32)c(C)c1 -7.82%
O=C(Nc1cc(Cl)cc(Cl)c1)c1ccc(F)c(S(=O)(=O)NC2CCCCC2)c1 -9.85%
CCCCc1ccc(NC(=O)CSc2nc3ccccc3nc2N2CCOCC2)cc1 -17.7%
CC(C)c1ccc2oc(-c3ccc(NC(=O)c4cc5ccccc5o4)cc3)nc2c1 -12.1%
COc1ccc(CCNC(=O)CCSCc2ccccc2Cl)cc1OC 10.8%
O=C(NCCS(=O)(=O)N1CCN(c2ccc(F)cc2)CC1)C1CC(=O)N(c2ccc(F)cc2)C1 (stereo not given) -2.83%
CCOC(=O)c1ccc2c(c1)N(Cc1ccccc1)C(=O)c1ccccc1S2 -10.3%
CC(C)CCn1c(=O)c2sccc2n2c(CCCC(=O)NC3CCC(C)CC3)nnc12 (stereo not given) -14.5%
CCc1ccc(CNC(=O)Cn2c(-c3cccs3)cc3cc(F)ccc32)cc1 -2.57%
COc1ccccc1NC(=O)c1c(NC(=O)Cc2ccccc2)sc2c1CCC(C(C)(C)C)C2 (stereo not given) -9.55%
CCn1nc(C)c(CCN(C)C(=O)Nc2cc(C)cc(C)c2)c1C -11.9%
O=C(Nc1cnc(N2CCC(N3CCCCC3)CC2)c(C(=O)O)c1)c1ccc(Br)cc1 -6.02%
CCn1ccc2c(OCC(=O)NCc3ccc(C)cc3)cccc2c1=O 3.74%
COc1ccccc1NC(=O)Cn1c(=O)n(Cc2ccccc2)c(=O)c2c3c(sc21)CN(C(C)=O)CC3 -11%
Cc1cc(C)nc(-n2nc(C)c3c2NC(=O)CC3c2cc(F)ccc2F)n1 (stereo not given) -7.99%
Nc1nonc1C(=O)NCCNCc1ccc(Cl)c(Cl)c1 -11%
COc1ccc(-c2cc(C(C)=O)c(C)n2CCC(=O)Nc2ccc(C(F)(F)F)cc2)cc1 -10.9%
COc1ccc(CNC(=O)CSc2n[nH]c(-c3ccc(OC)cc3)n2)cc1 5.75%
Cc1ccc(NC(=O)c2cc3c([nH]c2=O)CC(C)(C)CC3=O)c(C)c1 -21.1%
Cn1c(=O)cc(SCC(=O)N2CCN(c3ccccc3F)CC2)c2cc(Cl)ccc21 -18.3%
CC(C)Sc1ncc(Cl)c(C(=O)Nc2ccc(S(=O)(=O)Nc3ncccn3)cc2)n1 -11%
Cc1ccccc1-c1nc(CS(=O)(=O)CC(=O)Nc2cc(Cl)cc(Cl)c2)c(C)o1 -3.85%
O=C(CSc1ncc(-c2ccccc2)[nH]1)Nc1cccc(C(F)(F)F)c1 -18.4%
Cc1cc(Cl)ccc1OCC(=O)Nc1c(C(=O)c2ccccc2)oc2ccccc12 -4.57%
COc1cc(Cn2c(=O)sc3ccccc32)ccc1OCCC(C)C -20.4%
CC(C)c1ccc2c(c1)-c1ccccc1S(=O)(=O)N2CC(=O)N1CCCCC1 -10.8%
CCOc1ccc(C(=O)NCCn2cc(SCC(=O)Nc3ccccc3)c3ccccc32)cc1 -32.1%
COC(=O)c1cc(NC(=O)c2sc3ncn(Cc4cccc(F)c4)c(=O)c3c2C)cc(C(=O)OC)c1 -7.02%
Cc1ccc(-n2c(SCC(=O)NCc3ccccc3)nc3c([nH]c4ccccc43)c2=O)cc1 2.12%
COc1cc(CN(C(=O)c2cccc(C)c2)c2ccccn2)cc(OC)c1OC -38.4%
Cc1ccccc1CCNC(=O)C1CCN(c2nc3ccccc3nc2C(F)(F)F)CC1 -12%
CCC1CCCCN1C(=O)c1nn(-c2ccc(OC)cc2)c(=O)c2c1c1ccccc1n2C (stereo not given) -7.44%
O=C(NCc1ccccc1Cl)c1cc(=O)[nH]c2ccc(S(=O)(=O)N3CCCCC3)cc12 -5.71%
COc1ccccc1NC(=O)CCS(=O)(=O)c1cc2c3c(c1)CCN3C(=O)CC2 -10.8%
O=C(NCC1CCN(Cc2cccc(Cl)c2)CC1)c1cc2ccc3cccnc3c2[nH]1 -6.35%
CCN(Cc1ccccc1)C(=O)CN1C(=O)COc2ccc(S(=O)(=O)N(CC)CC)cc21 9.28%
COc1ccccc1CNC(=O)Cn1c(=O)oc2cc(S(=O)(=O)NCc3ccccc3)ccc21 2.17%
CC1=C(C(=O)Nc2ccc(Cl)cc2)C(C(C)C)n2nc(SCc3ccc(Cl)cc3)nc2N1 (stereo not given) -1.78%
COc1ccccc1Nc1nc(-c2ccccc2Cl)c2cc(Br)ccc2n1 -6.31%
Cc1ccc(C)c(N2CCN(C(=O)CCn3c(=O)c4cccn4c4cccnc43)CC2)c1 -11.7%
Cc1cc(C)c2c(CC(=O)Nc3ccc(S(=O)(=O)Nc4ncccn4)cc3)coc2c1 -10.3%
COc1ccc(OC)c(CCNC(=O)C2=C(C)C(=O)OC23CCC(C)CC3)c1 (stereo not given) -15.7%
O=C(Cn1nc(C(F)(F)F)c2c1CCC2)Nc1ccc(Cl)cc1 -2.69%
COc1ccc(Cl)cc1NC(=O)Cn1nc(Cc2ccncc2)c2ccccc2c1=O -4.75%
Cc1cc(F)ccc1NC1(c2ccccc2)C(=O)c2ccccc2C1=O -12.6%
COc1ccccc1NC(=O)N1CCC(CN2CCc3ccccc3C2)CC1 -4.51%
CCc1ccccc1NC(=O)C1CCN(C(=O)N2CC(C)Oc3ccc(Cl)cc32)CC1 (stereo not given) -7.5%
CCOc1ccccc1NC(=O)Cn1c(=O)n(Cc2ccco2)c(=O)c2ccc(C(=O)NC3CCCC3)cc21 -6.75%
CCOc1ccc(N(CC(=O)Nc2ccccc2CC)S(=O)(=O)c2c(C)[nH]c(=O)[nH]c2=O)cc1 -3.55%
